Laboratory results taken from PubChem BioAssay (NCI).
Where “and” joins values, the source holds several entries; their conditions need not be identical. Identical values can stand only once.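 1) Cells in 96-well plates. 2) Compound, 48 h, 5 concentrations. 3) Linear interpolation between surrounding doses. 4) Unreached endpoint = highest concentration. GI50: concentration for 50% inhibition of growth. TGI is the concentration that stops growth completely.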

System: NCI-H322M lung
Experiment: NCI tumour cell line growth inhibition, 48 h

**Q.** How did the GI50 turn out when COC(=O)c1cc2oc(/C=C3/SC(=S)N(N)C3=O)cc2n1Cc1ccccc1 was run?
**A.** 24.6 µM

**Q.** And the TGI?
**A.** > 84.2 µM

**Q.** For O=C(O)c1cc(=O)cc(C(=O)O)o1, which GI50 is on record?
**A.** > 100 µM

**Q.** What about the TGI of the same molecule?
**A.** > 100 µM

**Q.** Which results are given for CC(=O)CC/C=C(\C)[C@H](O)[C@H](C)C(=O)O[C@H]1C[C@H](C)C=C2C=C[C@@]3(C)O[C@@H](O)CC(=O)[C@]3(C)[C@H]21?
**A.** GI50: 1.11 µM; TGI: 4.93 µM

**Q.** Which TGI does the source give for CN(C)CCC(CCN(C)C)=NO here?
**A.** > 100 µM

**Q.** For N#CC(C#N)=C/C=C/c1c(Cl)cccc1Cl, which TGI is on record?
**A.** 6.45 µM

**Q.** CSc1nn(C)cc2ncnc1-2 was tested. Which TGI did it give?
**A.** > 100 µM

**Q.** How did the TGI turn out when CCCCCCn1c(SC)nc(COC(=O)NC)c1COC(=O)NC was run?
**A.** 31.8 µM

**Q.** How did the TGI turn out when CC1=C(C)C(=O)O[C@@H]([C@](C)(O)[C@]2(O)CC[C@@]3(O)[C@@H]4C[C@H](O)[C@]5(O)[C@@H](O)C=CC(=O)[C@]5(C)[C@H]4CC[C@]23C)C1 was run?
**A.** > 100 µM

**Q.** With Oc1ccc2c3c1OC1c4[nH]ncc4C[C@H]4[C@@H](C2)N(CC2CC2)CC[C@]314 (stereo partly drawn) as the molecule, how does the TGI read?
**A.** > 100 µM

**Q.** C=CC(=O)N1C[C@@H]2CCOc3c(Cl)c(-c4c(O)cccc4F)c(F)c4ncnc(c34)N2C[C@H]1C was tested. Which GI50 did it give?
**A.** 14.2 µM

**Q.** And the TGI?
**A.** 31.2 µM

**Q.** Which GI50 does the source give for Cc1cnc2oc3ccc(O)cc3c2c1-c1ccccc1 here?
**A.** 12.9 µM

**Q.** And the TGI?
**A.** 72.8 µM

**Q.** CCOC(=O)C1=C(C)NC2=C(C(=O)N(c3ccccc3)C2c2ccccc2)C1c1ccccc1 (stereo not drawn) was tested. Which TGI did it give?
**A.** 31.1 µM

**Q.** CC1C2CC(CC2(C)O)C1(C)C (stereo not drawn) was tested. Which TGI did it give?
**A.** > 100 µM

**Q.** What does the source list for COc1cc(/C=C/c2cc(/C=C/c3ccc(O)c(OC)c3)n(C(=O)Nc3ccccc3Cl)n2)ccc1O?
**A.** GI50: 0.466 µM; TGI: 5.17 µM

**Q.** Which TGI does the source give for O/N=C(/CC(O)(C(F)(F)F)C(F)(F)F)c1ccccc1 here?
**A.** > 10 µM

**Q.** Which GI50 does the source give for O=C1C(=C([O-])c2ccccc2)C(=O)c2ccccc21.O=C1C(=C([O-])c2ccccc2)C(=O)c2ccccc21.[Mn+2] here?
**A.** 48.1 µM

**Q.** And the TGI?
**A.** > 100 µM

**Q.** Which TGI does the source give for O=C1C=CC(=C(c2ccccc2)c2ccc(O)cc2)C=C1 here?
**A.** 30.9 µM

**Q.** Which TGI does the source give for O=C(Cc1ccccc1)NN1C(=O)/C(=C\c2cccc([N+](=O)[O-])c2)SC1=Nc1ccccc1 here?
**A.** > 100 µM

**Q.** CN(CC(=O)O)Cc1c(O)c(Cl)cc(Cl)c1Cl was tested. Which TGI did it give?
**A.** > 100 µM

**Q.** For CC(C)(C)c1cc(NC(=O)Nc2ccc(-c3cn4c(n3)sc3cc(OCCN5CCOCC5)ccc34)cc2)no1, which GI50 is on record?
**A.** 9.65 µM and 2.02 µM and > 10 µM

**Q.** What about the TGI of the same molecule?
**A.** 26.7 µM and 17.3 µM and > 10 µM
